B1: BRCA2_Y71 (peptide)
chain: QRKPSYNQLAS
B2: BRCA2_Y57_K53R (peptide)
chain: HRNNNYEPNLF
B3: BPGM_Y92_R90C (peptide)
chain: LNECHYGALIG
B4: BRDT_Y331_K336T (peptide)
chain: MDNQEYKDAYT
B5: BMPR2_Y979_R974P (peptide)
chain: PVKTPYSLKRW
B6: BMPR1A_Y457_M460T_YF (peptide)
chain: EFQLPYFNTVP
B7: BRCA2_Y57 (peptide)
chain: HKNNNYEPNLF
B8: BRCA2_Y3009_T3013I (peptide)
chain: KRYRIYHLAIS
B9: BRDT_Y291 (peptide)
chain: KKHFSYAWPFY
B10: BRD1_Y33 (peptide)
chain: RETLTYAQAQR
B11: BRCA2_Y2621 (peptide)
chain: SRIWVYNHYRW
B12: BSCL2_Y213 (peptide)
chain: QLYGAYLRIHA
B13: BPIFB2_Y36_K31M (peptide)
chain: MAALSYVSEIG
B14: BMPR1A_Y458_M460T (peptide)
chain: YQLPYYNTVPS
B15: BMPR1A_Y457 (peptide)
chain: EYQLPYYNMVP
B16: BRDT_Y291_YF (peptide)
chain: KKHFSYAWPFF
B17: BST2_Y8_T4I_YF (peptide)
chain: SISFDYCRVPM
B18: BRCA2_Y3009 (peptide)
chain: KRYRIYHLATS

The other results are listed elsewhere or left out. Rule as the data show it: active = 3.2 or more and inactive = the rest. Only a few entries rise above the background.
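Also: displayed peptides selected on beads carrying the immobilized SH2 domain, with library peptides lacking any tyrosine serving as negative controls.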

The target in one test is SHP2 C-SH2 domain E139D. The experiment in a line: enrichment score (SH2-bound / input frequency) (ratio); bacterial display of known human phosphotyrosine sites (pTyr-Var adds point mutants) read by sequencing; higher = stronger binding; tyrosines were phosphorylated by kinases first. The following applies: peptide library: pTyr-Var.
Consider B1, for which the enrichment score was inactive: 0.917.

On to B2, for which the enrichment score was inactive: 0.681.

Turning to B3, the enrichment score is inactive: 0.916.

As for B4, the enrichment score is inactive: 0.421.

B5: the enrichment score was inactive: 1.59.

B6: the enrichment score was inactive: 0.918.

Regarding B7, the enrichment score was inactive: 0.499.

With B8, the enrichment score was inactive: 2.17.

As for B9, the enrichment score is active: 5.29.

Consider B10, for which the enrichment score is inactive: 0.65.

As to B11, the enrichment score is active: 3.48.

As for B12, the enrichment score is inactive: 2.49.

As to B13, the enrichment score was inactive: 1.17.

On to B14, for which the enrichment score was inactive: 1.46.

Regarding B15, the enrichment score was inactive: 3.09.

Turning to B16, the enrichment score was active: 4.91.

As to B17, the enrichment score is inactive: 0.813.

In the case of B18, the enrichment score was inactive: 0.522.

The next test concerns the target SHP2 C-SH2 domain wild-type. The description is as above. The following applies: peptide library: pTyr-Var.
For the molecule B1, the enrichment score was inactive: 0.926.

For the molecule B2, the enrichment score was inactive: 0.652.

Consider B3, for which the enrichment score was inactive: 1.05.

For the molecule B4, the enrichment score was inactive: 0.452.

B5: the enrichment score is inactive: 1.86.

With B6, the enrichment score is inactive: 0.757.

Consider B7, for which the enrichment score is inactive: 0.774.

For the molecule B8, the enrichment score is inactive: 1.93.

For B9, the enrichment score was active: 4.18.

As to B10, the enrichment score was inactive: 0.483.

Take B11: the enrichment score is inactive: 2.95.

B12: the enrichment score was inactive: 2.65.

For the molecule B13, the enrichment score was inactive: 1.07.

Take B14: the enrichment score is inactive: 1.43.

Take B15: the enrichment score was inactive: 2.53.

Take B16: the enrichment score was active: 3.79.

With B17, the enrichment score was inactive: 0.91.

For the molecule B18, the enrichment score was inactive: 0.456.

A further test addresses SHP2 N-SH2 domain L43F. Described as above. The following applies: peptide library: pTyr-Var.
For B1, the enrichment score is inactive: 1.03.

As to B2, the enrichment score was inactive: 0.939.

In the case of B3, the enrichment score was inactive: 1.05.

On to B4, for which the enrichment score is inactive: 0.476.

Regarding B5, the enrichment score is inactive: 2.05.

For the molecule B6, the enrichment score was inactive: 0.881.

Turning to B7, the enrichment score is inactive: 0.586.

On to B8, for which the enrichment score is inactive: 2.03.

Consider B9, for which the enrichment score is active: 4.37.

For B10, the enrichment score is inactive: 0.568.

Regarding B11, the enrichment score is inactive: 2.85.

Regarding B12, the enrichment score was inactive: 2.57.

As to B13, the enrichment score is inactive: 1.13.

With B14, the enrichment score is inactive: 1.75.

Regarding B15, the enrichment score was inactive: 2.83.

As to B16, the enrichment score is active: 5.01.

As for B17, the enrichment score is inactive: 0.815.

As to B18, the enrichment score is inactive: 0.558.

For the next test, the target named is SHP2 N-SH2 domain T42A. Described as above. To be noted: peptide library: pTyr-Var.
As for B1, the enrichment score is inactive: 1.12.

Turning to B2, the enrichment score was inactive: 0.915.

For B3, the enrichment score is inactive: 0.772.

Regarding B4, the enrichment score is inactive: 0.418.

Consider B5, for which the enrichment score was inactive: 1.64.

With B6, the enrichment score was inactive: 0.617.

As for B7, the enrichment score was inactive: 0.544.

Turning to B8, the enrichment score is inactive: 1.91.

With B9, the enrichment score is active: 4.26.

Take B10: the enrichment score was inactive: 0.447.

Take B11: the enrichment score is inactive: 2.53.

As to B12, the enrichment score was inactive: 2.46.

Turning to B13, the enrichment score is inactive: 1.16.

For B14, the enrichment score is inactive: 2.37.

On to B15, for which the enrichment score was inactive: 2.95.

Consider B16, for which the enrichment score is active: 4.44.

In the case of B17, the enrichment score is inactive: 0.864.

Take B18: the enrichment score was inactive: 0.352.

The target in another test is SHP2 N-SH2 domain T52S. Described as above. The following applies: peptide library: pTyr-Var.
For B1, the enrichment score was inactive: 1.23.

For the molecule B2, the enrichment score was inactive: 0.922.

As to B3, the enrichment score is inactive: 0.889.

With B4, the enrichment score is inactive: 0.329.

As for B5, the enrichment score is inactive: 1.56.

Regarding B6, the enrichment score is inactive: 0.885.

As for B7, the enrichment score is inactive: 0.747.

On to B8, for which the enrichment score is inactive: 2.2.

With B9, the enrichment score is active: 4.04.

Take B10: the enrichment score is inactive: 0.456.

Regarding B11, the enrichment score is active: 3.31.

Regarding B12, the enrichment score is inactive: 2.77.

Consider B13, for which the enrichment score was inactive: 1.09.

With B14, the enrichment score was inactive: 1.6.

On to B15, for which the enrichment score was inactive: 2.76.

Regarding B16, the enrichment score was active: 5.58.

B17: the enrichment score was inactive: 0.935.

On to B18, for which the enrichment score was inactive: 0.776.

In the next test the target is SHP2 N-SH2 domain wild-type. Described as above. To be noted: peptide library: pTyr-Var.
As to B1, the enrichment score is inactive: 0.954.

With B2, the enrichment score is inactive: 0.962.

Consider B3, for which the enrichment score is inactive: 1.1.

B4: the enrichment score is inactive: 0.571.

With B5, the enrichment score was inactive: 1.85.

As for B6, the enrichment score was inactive: 0.822.

Consider B7, for which the enrichment score was inactive: 0.49.

On to B8, for which the enrichment score was inactive: 1.84.

As to B9, the enrichment score was active: 4.23.

In the case of B10, the enrichment score was inactive: 0.857.

Regarding B11, the enrichment score is inactive: 2.64.

As to B12, the enrichment score was inactive: 2.65.

On to B13, for which the enrichment score is inactive: 1.04.

Consider B14, for which the enrichment score was inactive: 1.19.

B15: the enrichment score was inactive: 2.46.

Regarding B16, the enrichment score was active: 4.07.

For the molecule B17, the enrichment score was inactive: 1.09.

Consider B18, for which the enrichment score is inactive: 0.547.

For the origin of these results see the supplement of paper PMC10369915.
